# The source holds several records for some structures; these can differ, active in one and inactive in another.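 Growth was measured after 48 h exposure to one concentration of compound in 96-well plates. Values under 10 count as active.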 For part of its entries the source gives two or more results. This list holds those alone. An entry can have further records. For some assays here: This drug was run again and again over the years, at its own concentration, as given; one value stands for one run. Signs of the kind (2×) say how often a value occurs here. Entries with a single value are a further part of the results. Activity calls are given as the source filed them.
# Tested on: MCF7 breast
# Experiment: NCI-60 one-dose screen, 48 h (100 = growth as untreated, 0 = no growth, -100 = all killed)
# Details: 0.25 µM
smiles,measurement,setting,value
COc1cccc2c1C(=O)c1c(O)c3c(c(O)c1C2=O)C[C@@](O)(C(=O)CO)C[C@@H]3OC1CC(N)C(O)C(C)O1 (stereo partly specified),growth,runs of 2006,active: 7.42%
same,growth,runs of 2007,"inactive: 18.2, 16.7, 13.5, 31.9, 14.1 (2×), 26.7, 24.6, 20.4 (2×), 17.6 (2×), 22.1 (2×), 13.4, 20.1, 18.3, 24.4, 21.7, 16.1, 23.2, 21.8, 23.1, 15.4, 17.8, 27.6, 16.8, 17.4, 15.7, 39.2, 40.7, 19.9, 22.6, 14, 15, 17.3, 16.6, 25.5% and active: 6.54%, 9.77%, -12.1%"
same,growth,runs of 2008,"inactive: 19.6 (3×), 19, 12, 23.5 (2×), 20.6, 21.8 (2×), 21.7, 24, 15.7 (2×), 15.8, 17.4, 10.5, 13.3, 11.2, 15.1, 16.7, 15.6, 90.3, 18.8, 10.3, 10.6, 12.9 (2×), 13.6, 15.9 (2×), 22, 22.9% and active: 4.97, 8.37, 4.9, 9.91, -3.16, 7.65, -0.492, 6.09, 6.2, 6.46, 8.26, 9.66, 8.79, 8.01, 6.9, 7.46%"
same,growth,runs of 2009,"inactive: 17.4, 12.5, 14.5, 27.5, 23.5, 16.1, 19.6, 21.7, 17.8, 19.7, 15.8, 19.2, 16 (2×), 14.7, 15.7, 13.5 (2×), 15.6, 14.6, 19, 11.2, 28.1, 16.9 (2×), 20.6, 17.5, 15.4, 19.9, 13.6, 11.8, 15.2 (2×), 15.5, 10.2, 14, 15.3, 22.3 (2×), 19.5, 13.1, 23.9, 25.8 (2×), 13.8 (2×), 33.7, 28, 26.2, 23.3, 22.5, 13% and active: 7.75, 7.02, -7.99, -3.91, 9.55, 9.7%"
same,growth,runs of 2010,"inactive: 20, 23.3 (3×), 30.4, 23.6, 22.6 (2×), 20.7, 23.5, 21.3, 25.5, 20.2 (2×), 22.7, 22.5 (2×), 19.4 (2×), 20.4 (2×), 23.7 (2×), 17.5, 19.7, 17.3, 13.4, 14.9, 15.2, 16, 27.1, 33.5, 17.8, 30.2, 23.4, 26.9, 24, 24.3, 25, 19.2, 23.2 (2×), 23, 21.7, 28.1, 26.3, 21.9, 21%"
same,growth,runs of 2011,"inactive: 19.9, 24.6 (2×), 26.3, 22.5 (3×), 25.2, 23.1, 29.5, 26.4 (2×), 23.4 (2×), 23, 27.6, 32.4 (2×), 10.3, 29.8, 30.6, 18.7, 24.8, 24, 29.2, 37.1, 23.9, 24.5, 19.3, 12.7, 22.1 (2×), 24.2, 16.1, 15.8, 16.8, 17, 14.9, 16.2, 19.4 (2×), 14.2, 14.5, 21.2, 17.6 (2×), 16.6, 14.6, 28.8, 22.7, 22.6, 23.7%"
same,growth,runs of 2012,"inactive: 25.5, 18, 19.2, 17.8, 21.3, 19.7 (2×), 25.1 (2×), 23.2, 25.9, 27.2 (3×), 15, 18.2, 16.9, 20.9, 11.5, 18.1, 24.2, 20.1 (2×), 19.5, 22.6, 25.6 (2×), 28.9, 27.6, 30.2, 25.8, 24.8, 23.3, 22.3, 22, 15.5, 21 (2×), 24.4, 30.9, 26.4, 24, 33.8, 30.5 (2×), 24.6 (2×), 26.2 (2×), 26.3, 27.5, 29.3, 26.7, 28.7, 27, 23.6, 20, 20.3, 20.4, 21.9% and active: 2.74%"
same,growth,runs of 2013,"inactive: 23.2, 19.8 (2×), 23, 24, 24.4, 27.5, 14.5, 21.7 (2×), 22.2, 20.5, 23.6 (2×), 21.8, 20.6 (2×), 24.3, 30.6, 25.7, 27.6 (2×), 25.6, 28.8 (2×), 26 (3×), 23.1, 25.1 (2×), 23.5, 28.5, 18.8, 25.5 (2×), 23.9 (3×), 27.1, 26.7, 29.6, 22.3, 25.2 (2×), 22.5 (2×), 24.6, 28, 26.4, 31.3, 30.7, 29.2, 19, 22.9, 19.4, 19.3, 18.7, 20.3, 21.2, 24.8, 17.6, 13.6, 17.4% and active: 8.47%"
same,growth,runs of 2014,"inactive: 17.6, 20.9, 16.2 (3×), 14.9 (2×), 15.9, 23.3, 15.8 (2×), 13.2, 15.4 (3×), 12.1 (2×), 19.2, 24.6, 35, 17.3, 20 (2×), 16.9, 18.2, 16.6 (2×), 16.8, 16.5 (2×), 17.1, 18.8, 18, 20.6, 19.7, 19.6, 15.3 (2×), 14.3 (2×), 16, 13.5, 21.8, 20.3, 15.6, 15.2 (2×), 15, 10.6 (2×), 11, 11.7 (2×), 13.6, 13 (2×), 12.9, 11.9, 10.2, 13.7, 11.8, 20.5, 23.9, 14.2, 19.8% and active: 9.38, 9.44, 8.74, 8.1, 7.95, 7.35, 9.5, 7.38, 9.29%"
same,growth,runs of 2015,"inactive: 17.3, 18.7 (4×), 23.4 (2×), 18, 17.8 (2×), 13.5, 15.7 (2×), 22.1 (2×), 22.2, 14.1, 18.1 (2×), 15.1, 13.8 (2×), 10, 16.8, 23.3, 11.6, 16.9, 22.6 (2×), 15.2 (2×), 21 (2×), 17.5 (2×), 19.5 (2×), 23.7, 20.1 (2×), 19, 21.8 (2×), 26, 21.2, 23.2, 19.3, 16.7, 19.4, 26.1 (2×), 15.5, 19.8 (2×), 17.1, 20.5, 25.8, 26.9, 23.9, 23.6, 18.8, 17, 15.9, 19.2, 20.7, 26.4, 25.7, 25.3%"
same,growth,runs of 2016,"inactive: 20.5 (3×), 17.1, 19.2 (3×), 21.7 (2×), 23, 20 (2×), 23.2 (3×), 19.4, 22.2 (3×), 24.5, 25.6, 18.7, 21.9 (5×), 19.6 (2×), 20.1, 19 (2×), 19.7 (2×), 20.2, 21.2, 22.6 (3×), 16.1, 23.8, 18 (2×), 16.2, 22.5, 17, 19.9, 21, 26.9, 20.7, 24, 23.3 (2×), 24.6, 22 (2×), 19.5 (2×), 19.3 (2×), 19.8, 17.4 (2×), 17.8, 18.3, 20.6, 29.1, 26.8, 23.6 (2×), 27.5, 28.5%"

# — PubChem BioAssay (NCI)
